± gives the standard deviation of the averaged measurements. The list shows a part of the results.

The assay deals with PfAP2-LT AP2 domain (GST-tagged). Briefly: gcPBM binding intensity (ln(normalized median fluorescence intensity)); higher = stronger DNA binding. An outline of the steps: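 Each value is the highest Masliner-normalised natural-log median intensity across replicate spots of either orientation of a probe. The probes were primer-extended double-stranded 36-bp intergenic genomic sequences on an Agilent 4 × 180k array, alongside negative controls, exposed for 1 h to GST-tagged P. falciparum DNA-binding domains expressed in E. coli. Bound protein was picked up with Alexa488 anti-GST antibody and scanned at 488 nm.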
Turning to “TTTATTTTAAATTTACGTACATAATTAATCATATTT [XGTACX_site7529]”, the “gcPBM binding intensity (ln)” value was 8.62 ± 0.54.

“ATAAAAAATTAGGACTGTACATAATTTTTGTGATTT [XGTACX_site2857]”: the “gcPBM binding intensity (ln)” value was determined as 8.64 ± 0.4.

Turning to TAATGCAACATTTATGTGCACATAAATATTTTTTAA, the “gcPBM binding intensity (ln)” value amounted to 8.62 ± 0.45. With “AAAACACAATTTATTACACACATATATTATAGATTA [CACACA_site6780]” the figure was 8.88 ± 0.42. Next, “TTATAAAAATACAGTTAACACACATGTGTATATATA [CACACA_site9257]”: 9.12 ± 0.21; “GATCGCATGAAATGAACACACATAAAAAAAATATAC [CACACA_site4087]”: 9.15 ± 0.48; “AAAAAAAAAATATACACACACACATACCCATAAATA [CACACA_site5981]”: 9.865 ± 0.035. With “AAAATAATCTTATGCACACCAAAAATTTATATAATC [CACACA_site1235]”, the “gcPBM binding intensity (ln)” value was determined as 8.9 ± 0.42. Turning to “ACAAAAAGTTACATACGTACGTAAAATTGTAATAAA [XGTACX_site2358]”, the “gcPBM binding intensity (ln)” value was determined as 9.1 ± 0.57. With “ATTATATTATATATATGTACATATATATATCATAAT [XGTACX_site1]” the figure was 8.79 ± 0.39; with “ATAATACCATTAATTTGTACATATATATTATATATA [XGTACX_site4345]”, 8.77 ± 0.44. In the case of “TTTTGGATGAACAGTACATGCAAAAACAAACTTGTA [TGCATGCA_site16]”, the “gcPBM binding intensity (ln)” value stood at 8.68 ± 0.28. Consider “TGCTTCTTTTAAAAACATGTTTGTATTCATTTTATA [CACACA_negctrl_site1627]”, for which the “gcPBM binding intensity (ln)” value is 8.85 ± 0.4.

In the case of “ATTTCTCTATCGTAATGTACAAAAAAAAGGAAAAAA [XGTACX_site1323]”, the “gcPBM binding intensity (ln)” value stood at 8.5 ± 0.51. Next, “ACATATAAATGATATGTACACACATTTATATATATA [CACACA_site9152]”: 9.06 ± 0.26. Next, TTTTTAACGTATAAGGTGCACTGTATATGGTACTCA: 8.88 ± 0.45. As to “TCTTCTTTAAAAGAGGTGCACTATATAATGTGATTA [GTGCAC_site9431]”, the “gcPBM binding intensity (ln)” value is 8.54 ± 0.43.

Consider “TAATTATACTTATTTTGTACGCAATATTTAAAATAA [XGTACX_site8516]”, for which the “gcPBM binding intensity (ln)” value stood at 8.49 ± 0.43. With “TATATATATATATATTGTACACATACATGTAGTTTT [XGTACX_site4848]” the figure was 9.48 ± 0.49; with “TATATATATATATAGGTGCAATATTGAAAAAATATC [GTGCAC_site9535]”, 9.12 ± 0.28; with “AAAGTAATATATAATACATGCGTAAATATTTATGTA [TGCATGCA_site254]”, 8.84 ± 0.51. In the case of “GACAAATGAAAAGATTGTACATGTATTTGAAGATTA [XGTACX_site6775]”, the “gcPBM binding intensity (ln)” value turned out to be 8.95 ± 0.38. Turning to “TACACAAAAATTTATACACACACATATATAATATAT [CACACA_site7931]”, the “gcPBM binding intensity (ln)” value is 9.38 ± 0.4. For the sequence “TGATTATATATAAATGTATGCATGTCTATTATGCTA [TGCATGCA_site543]”, the “gcPBM binding intensity (ln)” value stood at 8.66 ± 0.4. Next, “TCTTTTATATTTTTTTGTACACAAGAATAAAGAAAA [XGTACX_site3394]”: 8.12 ± 0.4. With “ATATATATATATATATCACACATTAATAATATATAT [CACACA_site5081]” the figure was 9.47 ± 0.17. Next, “TATATAAAAATATACACACACAAATGTATATATATA [CACACA_site220]”: 9.13 ± 0.3; “TACATACATACATACACACACATATAGATTTATATA [CACACA_site6999]”: 9.48 ± 0.28. On to “TTTTTTTTTTTTTTTAAACACACGGTGTGAAAATTA [CACACA_site3818]”, for which the “gcPBM binding intensity (ln)” value is 8.45 ± 0.36. With “TCTTTATTATTCGCCACACACATATAAATATAAATA [CACACA_site7441]” the figure was 8.93 ± 0.4; with “ATAATTTTGTATAATTGTACATTATTTTAAATAAAT [XGTACX_site7952]”, 8.59 ± 0.47.

With “AAAACATAACATTGTTGTACTACTAATAAAATAAGT [XGTACX_site6149]”, the “gcPBM binding intensity (ln)” value stood at 8.8 ± 0.52. Take “ATCAATCATGGTTTTACACACACATGCATGTGAAAA [CACACA_site1350]”: the “gcPBM binding intensity (ln)” value was found to be 9.29 ± 0.23. Next, “TTATCATATCATGGAAGTACAAATAAAATATATAAC [XGTACX_site1608]”: 8.8 ± 0.44. Next, “ATTTGATAGACACATGCACACATGCAATACTTTATT [CACACA_site5633]”: 9.24 ± 0.35; “TTTTCTGTGTTTACATGTACGAAAGATTAATATTAT [XGTACX_site5214]”: 8.73 ± 0.37. Next, “AATGATATATTTAAATGTACACATGAAATATAATAT [XGTACX_site2678]”: 8.8 ± 0.43; “TTATATTTGATAGTTTGTACATATAATTATTATCAT [XGTACX_site5676]”: 8.8 ± 0.52; “TATCTTCAAGTATGTACACACTATATATAATAAAAT [CACACA_site5368]”: 9.01 ± 0.46. Consider “TTCTTGTTCCTGAAAGTGCATATAACAAAAATAACA [GTGCAC_site9635]”, for which the “gcPBM binding intensity (ln)” value came out at 8.39 ± 0.3. With “ATAATTACATTCCATACACACATATATTTAAAGGTT [CACACA_site7403]” the figure was 9.02 ± 0.42.

In the case of “TATAAGTGCCGTTATACACACGTTATATAAATATTA [CACACA_site4401]”, the “gcPBM binding intensity (ln)” value came out at 8.81 ± 0.4. “ATAATTATATTTAGTGGTACTACTTTTGATAATTAG [XGTACX_site6562]”: the “gcPBM binding intensity (ln)” value stood at 8.63 ± 0.42. With “TGTAATATATGTATTGCACACCTATAACCATTATTT [CACACA_site8422]” the figure was 9.05 ± 0.32. With “GATGAATAATATGTATGTACATATGCATTATGATGT [XGTACX_site7655]” the figure was 9.03 ± 0.38.

These data come from the supplement of paper PMC11417369.
